Laboratory results reported in PubChem BioAssay AID1468 (National Center for Advancing Translational Sciences (NCATS), 2008).
In all, about 280,000 compounds went through this assay and about 1,100 (0.39%) were called active. The shares of active, inactive and inconclusive entries below differ from those in the screen. The call rests on the fitted dose curve; in most records, active means well fitted inhibition curve with a large enough effect; inconclusive means small, poorly fitted or top-dose-only effect, or effect the other way; inactive means flat fitted curve, though single readings scatter. Potencies of inconclusive entries are left out as doubtful fits.

Each compound was assayed against Microtubule-associated protein tau (Homo sapiens) (UniProt P10636) (assay: qHTS for Inhibitors of Tau Fibril Formation, Fluorescence Polarization). Conditions: K18 P301L tau heparin fibrillization, Alexa594 FP, 6 h; series mostly up to 57.7 µM; activity, negative = inhibition: at the top concentration.
In short: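 Quantitative HTS format: compounds meet 15 uM recombinant K18 P301L tau and Alexa 594-tau tracer in 100 mM sodium acetate pH 7; 20 uM heparin triggers fibrillization at 37 C over 6 hr; FP gives the signal.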
Further: nearly all actives have a fitted effect of over 55% in size.
On the % scale 0 is the no-effect control and ±100 the full control effect; potency means the concentration at half of the fitted maximal effect; tags describe the fitted curve by direction and shape.

Sequence of UniProt P10636 (P10636 whole entry, looked up): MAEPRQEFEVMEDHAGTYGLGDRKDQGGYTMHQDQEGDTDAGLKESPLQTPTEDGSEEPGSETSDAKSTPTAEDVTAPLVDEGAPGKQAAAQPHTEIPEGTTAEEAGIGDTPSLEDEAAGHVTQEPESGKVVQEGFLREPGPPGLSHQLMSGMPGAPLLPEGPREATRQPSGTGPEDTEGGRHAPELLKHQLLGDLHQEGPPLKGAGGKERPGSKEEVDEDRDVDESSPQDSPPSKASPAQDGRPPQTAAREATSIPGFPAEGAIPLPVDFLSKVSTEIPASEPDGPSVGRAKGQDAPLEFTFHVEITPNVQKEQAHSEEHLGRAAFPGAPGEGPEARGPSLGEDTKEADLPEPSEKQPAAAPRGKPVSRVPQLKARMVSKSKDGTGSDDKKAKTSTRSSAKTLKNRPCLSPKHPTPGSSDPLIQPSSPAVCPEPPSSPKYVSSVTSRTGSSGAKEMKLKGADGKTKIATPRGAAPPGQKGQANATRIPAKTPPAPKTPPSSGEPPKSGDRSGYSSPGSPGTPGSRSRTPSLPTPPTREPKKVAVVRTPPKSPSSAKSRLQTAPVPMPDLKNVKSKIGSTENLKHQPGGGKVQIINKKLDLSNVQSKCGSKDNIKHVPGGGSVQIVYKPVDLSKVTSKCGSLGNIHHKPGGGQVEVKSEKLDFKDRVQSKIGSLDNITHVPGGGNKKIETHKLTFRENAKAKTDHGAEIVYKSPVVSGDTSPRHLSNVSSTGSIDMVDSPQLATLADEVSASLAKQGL

Row | Structure (SMILES) | activity, negative = inhibition | Potency
1 | CN(C)c1ccc(/C=N/n2c(COc3ccccc3)n[nH]c2=S)cc1 | inactive: 5.24% | 
2 | CCOC(=O)c1ccc(N2C(=O)c3n[nH]c(-c4ccco4)c3C2c2ccc(F)cc2)cc1 (centres undefined) |  | inconclusive [inhibitor, partial curve]
3 | CCOc1ccc(NC(=O)CN2C(C(=O)OC)=C(c3ccccc3)c3cc(Cl)ccc3S2(=O)=O)cc1 |  | inconclusive [inhibitor, partial curve]
4 | Cc1ccc(-c2nc(NCc3ccc(F)cc3)n(S(C)(=O)=O)n2)cc1 |  | inconclusive [inhibitor, partial curve, poor fit]
5 | NC(=S)NNc1cccc2cccnc12 |  | active: 7.94 µM
6 | COc1ccccc1-c1cc(NC(=O)COc2ccc(C)c(C)c2)n(-c2ccccc2)n1 |  | inconclusive [inhibitor, single point]
7 | CC1(C)CC(=O)C(/C=N/c2ccccn2)=C(O)C1 |  | inconclusive [inhibitor, partial curve]
8 | Cc1ccccc1-c1nnc(SCc2ccccc2F)o1 |  | inconclusive [inhibitor, single point]
9 | O=c1cc(-c2ccc(O)c(O)c2)oc2c(C3O[C@H](CO)[C@@H](O)[C@H](O)[C@H]3O)c(O)cc(O)c12 (some centres undefined) | inactive: -3.01% | 
10 | Cn1c(=O)[nH]c(=O)c2c1nc1n2CCN1c1ccccc1 |  | inconclusive [activator, single point]
11 | C[C@H]1CC2[C@@H]3CCC4=CC(=O)C=C[C@]4(C)[C@@]3(F)[C@@H](O)C[C@]2(C)[C@@]1(O)C(=O)CO (some centres undefined) | inactive: -11.6% | 
12 | CCOC(=O)c1ccccc1NC(=O)CSc1cn(CC(=O)N2CCOCC2)c2ccccc12 | inactive: 0.86% | 
13 | CCN1CCN(c2nc3ccccn3c(=O)c2/C=C(\C#N)S(=O)(=O)c2ccccc2)CC1 | inactive: -2.19% | 
14 | O=C(NC1=C(Nc2ccc(F)cc2)C(=O)c2ccccc2C1=O)c1ccc(Cl)cc1 | inactive: 1.45% | 
15 | Oc1ccc(C(=S)N2CCN(c3cccc(Cl)c3)CC2)cc1 |  | inconclusive [inhibitor, partial curve]
16 | CCOc1cc(C)c(Cl)cc1S(=O)(=O)N(C)C |  | inconclusive [inhibitor, single point]
17 | COc1cccc(C(Nc2ccccn2)c2oc(CO)cc(=O)c2O)c1 (centres undefined) |  | inconclusive [inhibitor, single point]
18 | O=C1C(Nc2ccccc2)=CC(=O)c2ncccc21 |  | inconclusive [inhibitor, partial curve]
19 | CC(C)CN(CCCNC(=O)CN1N=C(c2ccccc2)CCC1=O)CC(C)C | inactive: -1.05% | 
